Measurements reported in paper PMC3944433.
Read-outs that look alike come from different tables or passages of the source. Results are given in words; binding and its absence hold for the method and conditions named. Binding seen in cells or lysates may run through a third protein. Some entries that bind do so weakly or less than the wild type. For part of these data: Sequences can lack the tags named with a protein.

The chains behind the UniProt entries cited, without tags or fusion partners. Where a name states a change or a piece, a line headed by the entry shows the natural chain unless it says otherwise. A line that says so, or that is headed by a name, gives the form on record, which may keep a tag or linker. Residues count along the entry.
UniProt P25439: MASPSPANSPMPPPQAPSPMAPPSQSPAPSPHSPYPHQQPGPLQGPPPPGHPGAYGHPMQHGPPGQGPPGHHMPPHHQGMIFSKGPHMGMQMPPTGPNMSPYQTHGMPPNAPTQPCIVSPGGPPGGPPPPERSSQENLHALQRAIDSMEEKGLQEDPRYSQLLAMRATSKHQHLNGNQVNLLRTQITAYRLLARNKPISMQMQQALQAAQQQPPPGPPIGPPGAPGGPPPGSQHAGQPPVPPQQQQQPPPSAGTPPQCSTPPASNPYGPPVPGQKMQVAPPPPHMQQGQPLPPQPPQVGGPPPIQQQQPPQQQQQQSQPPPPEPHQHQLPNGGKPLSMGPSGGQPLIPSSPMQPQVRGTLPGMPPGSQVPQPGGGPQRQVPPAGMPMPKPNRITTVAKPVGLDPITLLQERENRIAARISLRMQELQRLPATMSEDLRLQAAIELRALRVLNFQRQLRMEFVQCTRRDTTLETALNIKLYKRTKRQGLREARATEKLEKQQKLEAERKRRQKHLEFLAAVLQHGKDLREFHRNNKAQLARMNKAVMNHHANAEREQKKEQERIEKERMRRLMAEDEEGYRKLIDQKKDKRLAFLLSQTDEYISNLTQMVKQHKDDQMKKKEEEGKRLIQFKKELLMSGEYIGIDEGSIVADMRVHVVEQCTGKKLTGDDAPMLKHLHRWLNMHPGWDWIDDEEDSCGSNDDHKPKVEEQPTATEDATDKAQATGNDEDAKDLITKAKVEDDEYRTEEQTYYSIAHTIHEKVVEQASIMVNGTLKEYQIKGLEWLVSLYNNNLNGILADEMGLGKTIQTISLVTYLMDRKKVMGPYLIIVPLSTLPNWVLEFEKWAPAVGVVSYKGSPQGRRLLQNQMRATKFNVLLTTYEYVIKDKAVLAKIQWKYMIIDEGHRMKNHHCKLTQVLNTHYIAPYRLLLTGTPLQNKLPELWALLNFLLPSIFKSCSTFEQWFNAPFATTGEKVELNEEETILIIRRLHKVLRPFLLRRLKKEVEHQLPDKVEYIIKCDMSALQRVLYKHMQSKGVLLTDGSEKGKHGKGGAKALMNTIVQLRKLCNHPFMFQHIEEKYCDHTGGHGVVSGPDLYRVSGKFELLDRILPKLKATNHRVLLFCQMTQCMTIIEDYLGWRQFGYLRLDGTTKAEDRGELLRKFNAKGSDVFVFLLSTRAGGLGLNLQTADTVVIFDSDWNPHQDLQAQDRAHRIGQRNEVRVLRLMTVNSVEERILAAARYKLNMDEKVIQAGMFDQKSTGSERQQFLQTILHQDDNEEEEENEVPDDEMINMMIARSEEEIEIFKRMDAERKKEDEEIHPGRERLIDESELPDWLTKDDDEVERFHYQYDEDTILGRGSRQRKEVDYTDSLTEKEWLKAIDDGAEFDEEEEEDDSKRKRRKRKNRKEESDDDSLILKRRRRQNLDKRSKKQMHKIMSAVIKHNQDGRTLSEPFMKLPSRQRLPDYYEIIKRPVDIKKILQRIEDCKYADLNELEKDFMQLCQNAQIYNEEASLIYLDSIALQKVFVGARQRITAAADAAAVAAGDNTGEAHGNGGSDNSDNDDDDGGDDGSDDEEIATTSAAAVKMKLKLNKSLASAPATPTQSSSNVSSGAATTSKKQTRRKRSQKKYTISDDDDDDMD
UniProt Q9VQ56: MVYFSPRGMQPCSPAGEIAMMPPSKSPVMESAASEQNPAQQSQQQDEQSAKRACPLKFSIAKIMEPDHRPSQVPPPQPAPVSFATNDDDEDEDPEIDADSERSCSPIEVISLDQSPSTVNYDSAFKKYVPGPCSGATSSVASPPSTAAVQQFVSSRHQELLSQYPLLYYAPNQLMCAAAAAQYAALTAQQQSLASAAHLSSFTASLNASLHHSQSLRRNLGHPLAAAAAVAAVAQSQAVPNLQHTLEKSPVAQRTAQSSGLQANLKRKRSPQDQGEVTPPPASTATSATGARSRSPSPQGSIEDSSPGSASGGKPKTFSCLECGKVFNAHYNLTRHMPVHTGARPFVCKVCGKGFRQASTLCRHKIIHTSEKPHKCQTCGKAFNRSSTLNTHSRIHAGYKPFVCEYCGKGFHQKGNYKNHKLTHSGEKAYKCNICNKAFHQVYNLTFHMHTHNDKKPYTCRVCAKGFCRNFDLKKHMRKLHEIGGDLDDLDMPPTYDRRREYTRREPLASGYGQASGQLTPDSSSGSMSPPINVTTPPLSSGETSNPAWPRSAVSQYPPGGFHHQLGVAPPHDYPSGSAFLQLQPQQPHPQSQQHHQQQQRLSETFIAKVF
MBP-Erm-N (Maltose-Binding Protein fused to Erm 1-441aa) (Drosophila (D. melanogaster)): residues 1-441 of Q9VQ56
MBP-Erm-C (Maltose-Binding Protein fused to Erm 332-611aa) (Drosophila (D. melanogaster)): residues 332-611 of Q9VQ56
UniProt Q9VYG2: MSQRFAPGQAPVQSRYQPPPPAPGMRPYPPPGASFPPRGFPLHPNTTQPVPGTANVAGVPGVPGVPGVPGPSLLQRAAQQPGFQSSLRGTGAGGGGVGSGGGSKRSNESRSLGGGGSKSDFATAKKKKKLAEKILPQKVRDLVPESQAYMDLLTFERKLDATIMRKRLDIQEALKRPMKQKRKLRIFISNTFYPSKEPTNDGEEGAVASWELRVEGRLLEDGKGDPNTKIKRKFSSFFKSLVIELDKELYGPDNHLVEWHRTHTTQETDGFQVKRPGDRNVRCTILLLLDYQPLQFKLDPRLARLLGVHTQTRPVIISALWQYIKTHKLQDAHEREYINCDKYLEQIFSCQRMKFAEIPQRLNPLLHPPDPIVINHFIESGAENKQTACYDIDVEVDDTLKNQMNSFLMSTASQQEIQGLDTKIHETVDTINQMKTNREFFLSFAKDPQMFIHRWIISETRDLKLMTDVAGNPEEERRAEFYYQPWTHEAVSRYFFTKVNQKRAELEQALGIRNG

What was measured:
[1] = target: Flag-tagged Brahma (Brm) (Drosophila (D. melanogaster)) (UniProt P25439); assay: co-IP; S2 cells co-transfected with Flag- and Myc-tagged proteins; lysis buffer 25 mM Tris pH8, 27.5 mM NaCl, 20 mM KCl, 0.5% Nonidet P40; IP with anti-Myc or anti-Flag overnight at 4°C, protein A/G beads; western blot with anti-Flag and anti-Myc
[2] = target: MBP-Erm-C (Maltose-Binding Protein fused to Erm 332-611aa) (Drosophila (D. melanogaster)) (UniProt Q9VQ56); assay: pull-down; 50 μg purified MBP or MBP fusion protein bound on amylose resin, incubated 3 hr at 4°C with protein extracts from transfected S2 cells; washed three times with lysis buffer; western blot with anti-Myc; only the target purified
[3] = target: MBP-Erm-N (Maltose-Binding Protein fused to Erm 1-441aa) (Drosophila (D. melanogaster)) (UniProt Q9VQ56); assay: as above
[4] = target: T1, Flag-tagged Histone deacetylase 3 (HDAC3) (Drosophila (D. melanogaster)) (UniProt Q7KTS4); assay: co-IP; S2 cells co-transfected with Flag- and Myc-tagged proteins; lysis buffer 25 mM Tris pH8, 27.5 mM NaCl, 20 mM KCl, 0.5% Nonidet P40; IP with anti-Myc or anti-Flag overnight at 4°C, protein A/G beads; western blot with anti-Flag and anti-Myc
T1 sequence: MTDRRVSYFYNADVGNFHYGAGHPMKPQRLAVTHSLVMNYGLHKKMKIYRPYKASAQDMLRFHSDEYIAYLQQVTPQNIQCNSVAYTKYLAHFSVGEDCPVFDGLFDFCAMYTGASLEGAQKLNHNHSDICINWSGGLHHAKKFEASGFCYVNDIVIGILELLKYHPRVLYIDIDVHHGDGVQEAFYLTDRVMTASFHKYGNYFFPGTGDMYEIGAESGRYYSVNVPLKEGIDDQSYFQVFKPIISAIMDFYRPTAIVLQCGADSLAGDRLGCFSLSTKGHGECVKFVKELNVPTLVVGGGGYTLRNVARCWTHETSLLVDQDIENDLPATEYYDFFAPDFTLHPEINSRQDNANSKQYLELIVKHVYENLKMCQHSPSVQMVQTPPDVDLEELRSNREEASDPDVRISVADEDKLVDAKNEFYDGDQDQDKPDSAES

[5] = target: Flag-tagged Erm N-terminal 1-441aa (Drosophila (D. melanogaster)) (UniProt Q9VQ56); assay: as above
[6] = target: Flag-tagged Erm C-terminal 332-611aa (Drosophila (D. melanogaster)) (UniProt Q9VQ56); assay: as above
[7] = target: Flag-tagged BAP60 (Drosophila (D. melanogaster)) (UniProt Q9VYG2); assay: as above
[8] = target: Myc-tagged Earmuff (Erm), full length (Drosophila (D. melanogaster)) (UniProt Q9VQ56); assay: as above
[9] = target: Myc-tagged Erm C-terminal 332-611aa (Drosophila (D. melanogaster)) (UniProt Q9VQ56); assay: as above
[10] = target: Myc-tagged Erm N-terminal 1-441aa (Drosophila (D. melanogaster)) (UniProt Q9VQ56); assay: as above
[11] = target: Myc-tagged Erm C-terminal 332-611aa (Drosophila (D. melanogaster)) (UniProt Q9VQ56); assay: as above; remark: listed apart in the source
[12] = target: Myc-tagged Erm N-terminal 1-441aa (Drosophila (D. melanogaster)) (UniProt Q9VQ56); assay: as above; remark: listed apart in the source
[13] = target: Myc-tagged Brahma (Brm) (Drosophila (D. melanogaster)) (UniProt P25439); assay: as above
[14] = target: MBP-Erm-C (Maltose-Binding Protein fused to Erm 332-611aa) (Drosophila (D. melanogaster)) (UniProt Q9VQ56); assay: pull-down; 50 μg purified MBP or MBP fusion protein bound on amylose resin, incubated 3 hr at 4°C with protein extracts from transfected S2 cells; washed three times with lysis buffer; western blot with anti-Myc; only the target purified; remark: listed apart in the source
[15] = target: MBP-Erm-N (Maltose-Binding Protein fused to Erm 1-441aa) (Drosophila (D. melanogaster)) (UniProt Q9VQ56); assay: as above; remark: listed apart in the source

Myc-tagged Earmuff (Erm), full length (from UniProt Q9VQ56 1-611)
binding [1]: binds

Myc-tagged Brahma (Brm) (from UniProt P25439 1-1638)
binding [2]: binds weakly
binding [3]: binds
binding [4]: binds
binding [5]: binds
binding [6]: binds weakly

Myc-tagged Erm N-terminal 1-441aa (from UniProt Q9VQ56 1-441) (domain or fragment)
binding [7]: binds

Flag-tagged Brahma (Brm) (from UniProt P25439 1-1638)
binding [8]: binds

Flag-tagged BAP60 (from UniProt Q9VYG2 1-515)
binding [9]: no binding
binding [10]: binds

B1: Flag-tagged Histone deacetylase 3 (HDAC3) (enzyme, UniProt Q7KTS4 1-438)
chain: MTDRRVSYFYNADVGNFHYGAGHPMKPQRLAVTHSLVMNYGLHKKMKIYRPYKASAQDMLRFHSDEYIAYLQQVTPQNIQCNSVAYTKYLAHFSVGEDCPVFDGLFDFCAMYTGASLEGAQKLNHNHSDICINWSGGLHHAKKFEASGFCYVNDIVIGILELLKYHPRVLYIDIDVHHGDGVQEAFYLTDRVMTASFHKYGNYFFPGTGDMYEIGAESGRYYSVNVPLKEGIDDQSYFQVFKPIISAIMDFYRPTAIVLQCGADSLAGDRLGCFSLSTKGHGECVKFVKELNVPTLVVGGGGYTLRNVARCWTHETSLLVDQDIENDLPATEYYDFFAPDFTLHPEINSRQDNANSKQYLELIVKHVYENLKMCQHSPSVQMVQTPPDVDLEELRSNREEASDPDVRISVADEDKLVDAKNEFYDGDQDQDKPDSAES
binding [11]: no binding
binding [12]: binds
binding [13]: binds

B2: Myc-tagged Histone deacetylase 3 (HDAC3) (enzyme, UniProt Q7KTS4 1-438)
chain: MTDRRVSYFYNADVGNFHYGAGHPMKPQRLAVTHSLVMNYGLHKKMKIYRPYKASAQDMLRFHSDEYIAYLQQVTPQNIQCNSVAYTKYLAHFSVGEDCPVFDGLFDFCAMYTGASLEGAQKLNHNHSDICINWSGGLHHAKKFEASGFCYVNDIVIGILELLKYHPRVLYIDIDVHHGDGVQEAFYLTDRVMTASFHKYGNYFFPGTGDMYEIGAESGRYYSVNVPLKEGIDDQSYFQVFKPIISAIMDFYRPTAIVLQCGADSLAGDRLGCFSLSTKGHGECVKFVKELNVPTLVVGGGGYTLRNVARCWTHETSLLVDQDIENDLPATEYYDFFAPDFTLHPEINSRQDNANSKQYLELIVKHVYENLKMCQHSPSVQMVQTPPDVDLEELRSNREEASDPDVRISVADEDKLVDAKNEFYDGDQDQDKPDSAES
binding [14]: no binding
binding [15]: binds
